± gives the uncertainty stated by the source. The source gives many values for each of these; only a part stands here.
Assay: xn = mol fraction of the nth substance listed

Compound: Nc1ccccc1 + C1CCCCC1
- viscosity (301.73 K, 101 kPa, x1 = 0.229): 0.985 ± 0.013 mPa·s
- viscosity (302.05 K, 101 kPa, x1 = 0.229): 0.979 ± 0.013 mPa·s
- viscosity (302.32 K, 101 kPa, x1 = 0.238): 1.071 ± 0.014 mPa·s
- viscosity (302.61 K, 101 kPa, x1 = 0.229): 0.968 ± 0.013 mPa·s
- viscosity (302.61 K, 101 kPa, x1 = 0.238): 1.065 ± 0.014 mPa·s
- viscosity (302.75 K, 101.32 kPa, x1 = 0.496): 1.66 ± 0.045 mPa·s
- viscosity (303.56 K, 101 kPa, x1 = 0.238): 1.034 ± 0.013 mPa·s
- viscosity (303.62 K, 101 kPa, x1 = 0.229): 0.943 ± 0.012 mPa·s
- viscosity (303.75 K, 101.32 kPa, x1 = 0.2643): 1.07 ± 0.04 mPa·s
- viscosity (304.15 K, 101.32 kPa, x1 = 0.2643): 1.03 ± 0.039 mPa·s
- viscosity (304.15 K, 101.32 kPa, x1 = 0.4039): 1.52 ± 0.044 mPa·s
- viscosity (304.15 K, 101.32 kPa, x1 = 0.496): 1.47 ± 0.043 mPa·s
- viscosity (304.53 K, 101 kPa, x1 = 0.229): 0.926 ± 0.012 mPa·s
- viscosity (304.65 K, 101.32 kPa, x1 = 0.4313): 1.42 ± 0.043 mPa·s
- viscosity (305.15 K, 101.32 kPa, x1 = 0.496): 1.4 ± 0.043 mPa·s
- viscosity (305.36 K, 101 kPa, x1 = 0.238): 0.989 ± 0.013 mPa·s
- viscosity (305.44 K, 101 kPa, x1 = 0.229): 0.911 ± 0.012 mPa·s
- viscosity (305.55 K, 101.32 kPa, x1 = 0.5628): 1.44 ± 0.043 mPa·s
- viscosity (305.65 K, 101.32 kPa, x1 = 0.4039): 1.28 ± 0.042 mPa·s
- viscosity (305.65 K, 101.32 kPa, x1 = 0.4313): 1.3 ± 0.042 mPa·s
- viscosity (306.15 K, 101.32 kPa, x1 = 0.2643): 0.98 ± 0.039 mPa·s
- viscosity (306.26 K, 101 kPa, x1 = 0.229): 0.893 ± 0.012 mPa·s
- viscosity (306.75 K, 101.32 kPa, x1 = 0.5628): 1.39 ± 0.043 mPa·s
- viscosity (307.15 K, 101.32 kPa, x1 = 0.4039): 1.15 ± 0.04 mPa·s
- viscosity (307.43 K, 101 kPa, x1 = 0.229): 0.874 ± 0.011 mPa·s
- viscosity (307.49 K, 101 kPa, x1 = 0.238): 0.943 ± 0.012 mPa·s
- viscosity (308.15 K, 101.32 kPa, x1 = 0.2643): 0.93 ± 0.038 mPa·s
- viscosity (308.15 K, 101.32 kPa, x1 = 0.496): 1.27 ± 0.041 mPa·s
- viscosity (308.4 K, 101 kPa, x1 = 0.229): 0.857 ± 0.011 mPa·s
- viscosity (309.15 K, 101.32 kPa, x1 = 0.4039): 1.06 ± 0.04 mPa·s
- viscosity (309.15 K, 101.32 kPa, x1 = 0.4313): 1.14 ± 0.04 mPa·s
- viscosity (309.28 K, 101 kPa, x1 = 0.229): 0.838 ± 0.011 mPa·s
- viscosity (309.65 K, 101.32 kPa, x1 = 0.5628): 1.27 ± 0.041 mPa·s
- viscosity (310.15 K, 101.32 kPa, x1 = 0.2643): 0.89 ± 0.038 mPa·s
- viscosity (310.15 K, 101.32 kPa, x1 = 0.4039): 1.04 ± 0.039 mPa·s
- viscosity (310.15 K, 101.32 kPa, x1 = 0.4313): 1.11 ± 0.04 mPa·s
- viscosity (310.15 K, 101.32 kPa, x1 = 0.496): 1.22 ± 0.041 mPa·s
- viscosity (310.41 K, 101 kPa, x1 = 0.238): 0.886 ± 0.011 mPa·s
- viscosity (310.69 K, 101 kPa, x1 = 0.229): 0.818 ± 0.011 mPa·s
- viscosity (311.29 K, 101 kPa, x1 = 0.229): 0.807 ± 0.01 mPa·s
- viscosity (311.68 K, 101 kPa, x1 = 0.238): 0.861 ± 0.011 mPa·s
- viscosity (312.29 K, 101 kPa, x1 = 0.229): 0.791 ± 0.01 mPa·s

Compound: CCCCCCCCCC(=O)OC + CCCCO
- viscosity (318.15 K, 100 kPa, x1 = 0.2): 1.285 ± 0.078 mPa·s
- viscosity (318.15 K, 100 kPa, x1 = 0.3): 1.239 ± 0.075 mPa·s
- viscosity (318.15 K, 100 kPa, x1 = 0.4): 1.22 ± 0.074 mPa·s
- viscosity (318.15 K, 100 kPa, x1 = 0.5): 1.213 ± 0.073 mPa·s
- viscosity (318.15 K, 100 kPa, x1 = 0.6001): 1.222 ± 0.074 mPa·s
- viscosity (318.15 K, 100 kPa, x1 = 0.6999): 1.238 ± 0.075 mPa·s
- viscosity (318.15 K, 100 kPa, x1 = 0.7987): 1.262 ± 0.076 mPa·s
- viscosity (318.15 K, 100 kPa, x1 = 0.8967): 1.295 ± 0.078 mPa·s
- viscosity (323.15 K, 100 kPa, x1 = 0.1): 1.25 ± 0.076 mPa·s
- viscosity (323.15 K, 100 kPa, x1 = 0.2): 1.17 ± 0.071 mPa·s
- viscosity (323.15 K, 100 kPa, x1 = 0.3): 1.132 ± 0.068 mPa·s
- viscosity (323.15 K, 100 kPa, x1 = 0.4): 1.117 ± 0.067 mPa·s
- viscosity (323.15 K, 100 kPa, x1 = 0.5): 1.117 ± 0.067 mPa·s
- viscosity (323.15 K, 100 kPa, x1 = 0.6001): 1.126 ± 0.068 mPa·s
- viscosity (323.15 K, 100 kPa, x1 = 0.6999): 1.142 ± 0.069 mPa·s
- viscosity (323.15 K, 100 kPa, x1 = 0.7987): 1.166 ± 0.07 mPa·s
- viscosity (323.15 K, 100 kPa, x1 = 0.8967): 1.198 ± 0.072 mPa·s

Compound: CC(C)(C)N + O
- viscosity (308.15 K, 101.33 kPa, x1 = 0.9): 0.4625 ± 0.0054 mPa·s
- viscosity (313.15 K, 101.33 kPa, x1 = 0.1001): 1.622 ± 0.01 mPa·s
- viscosity (313.15 K, 101.33 kPa, x1 = 0.2002): 1.905 ± 0.013 mPa·s
- viscosity (313.15 K, 101.33 kPa, x1 = 0.2998): 1.759 ± 0.012 mPa·s
- viscosity (313.15 K, 101.33 kPa, x1 = 0.3996): 1.429 ± 0.011 mPa·s
- viscosity (313.15 K, 101.33 kPa, x1 = 0.5): 1.102 ± 0.0091 mPa·s
- viscosity (313.15 K, 101.33 kPa, x1 = 0.5999): 0.8436 ± 0.0076 mPa·s
- viscosity (313.15 K, 101.33 kPa, x1 = 0.6984): 0.6553 ± 0.0065 mPa·s
- viscosity (313.15 K, 101.33 kPa, x1 = 0.7998): 0.5186 ± 0.0056 mPa·s
- viscosity (313.15 K, 101.33 kPa, x1 = 0.9): 0.4274 ± 0.0051 mPa·s
